Data from PubChem BioAssay AID1346428 (National Center for Advancing Translational Sciences (NCATS), 2018).
Among all 48,000 compounds or so, about 1,200 (2.5%) were called active. Another 2% or so got no clear call; they are omitted.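 Rule for the calls: active = activation of at least 60% and not above a set upper limit (about 1 call in 100 departs from these limits); inconclusive = activation of 40% to 60%, or above that upper limit; inactive = activation under 40%.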 Some of the results follow.

target: Probable G-protein coupled receptor 32 (Homo sapiens) (UniProt O75388); assay: qHTS for Agonists of Human Resolvin D1 Receptor DRV1; settings: CHO-K1 GPR32 beta-arrestin PathHunter luminescence, 90 min; at 76.9 µM; hits give high values; zero percent set by DMSO-only wells; note: 0% is about no effect
Sequence of UniProt O75388 (O75388 whole entry, looked up): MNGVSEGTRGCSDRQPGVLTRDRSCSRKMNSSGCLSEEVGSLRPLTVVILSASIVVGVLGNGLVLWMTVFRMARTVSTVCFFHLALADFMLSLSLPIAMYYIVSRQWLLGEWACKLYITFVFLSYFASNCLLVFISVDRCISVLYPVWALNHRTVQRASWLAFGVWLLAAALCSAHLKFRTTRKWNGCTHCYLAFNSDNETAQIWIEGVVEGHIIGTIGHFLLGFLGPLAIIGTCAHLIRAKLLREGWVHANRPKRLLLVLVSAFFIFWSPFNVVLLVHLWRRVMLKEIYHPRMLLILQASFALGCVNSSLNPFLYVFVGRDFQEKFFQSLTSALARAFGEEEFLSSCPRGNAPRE
Method in brief: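 Luminescent readout of beta-Gal complementation quantifies ligand-induced beta-arrestin association with GPR32 in CHO-K1 cells; 90 min compound incubation at 37 °C, detection 1 h at room temperature.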

Compound	activation
N#Cc1ccccc1Cn1c(SCC(=O)Nc2ccc(F)cc2)nc2ccccc21	inactive: -0.201%
O=C(COc1ccccc1)Nc1ccc2nc(SCC(=O)N3CCc4ccccc43)sc2c1	inactive: -4.68%
CCOc1ccc(C(=O)Nc2onc3c2CCCC3)cc1	inactive: 38.6%
CCc1nnc(SCc2ccc(F)cc2Cl)c2cc3sc(C)cc3n12	inactive: -25.7%
CC(=O)c1ccc(NC(=O)c2nc(-c3ccccc3)n(-c3ccccc3Cl)n2)cc1	inactive: -9.34%
COc1ccc(CNCCCSc2nnnn2C)c(OC)c1	inactive: -4.54%
CCC(=O)N1CCc2cc(S(=O)(=O)NCCC(=O)Nc3ccc(C)cc3)ccc21	inactive: 12.3%
CCCNC(=O)CCNS(=O)(=O)c1ccc2c(c1)c(=O)n(C)c(=O)n2C	inactive: -20.8%
CC(=O)c1ccc(NS(=O)(=O)c2cc(-c3cc(C)no3)ccc2C)cc1	inactive: -5.6%
CC(=O)c1cccc(Nc2ccc3cc(S(=O)(=O)N4CCC(C)CC4)ccc3n2)c1	inactive: -0.129%
O=C(COc1ccccc1-c1nnc(-c2ccccc2)o1)Nc1ccc(Br)cc1F	inactive: 10.7%
Cc1ccc(CNC(=O)CCc2c(C)nc3nc(CNC(=O)OC(C)(C)C)nn3c2C)cc1	inactive: 7.05%
CC(C)c1ccc(-c2nnc3n(CCc4ccccc4)c(=O)c4ccccc4n23)cc1	inactive: 45.6%
Cc1cccc(NCc2nc3ccccc3n2CCOc2ccccc2C)c1	inactive: -37.9%
COc1cc(C(=O)n2nc(-c3ccco3)nc2NCc2ccc(Cl)cc2)cc(OC)c1OC	inactive: -0.226%
COc1ccc(NC(=O)c2c(C)oc3ccc(O)c(CN4CCCC4)c23)cc1Cl	inactive: 26.6%
COc1ccc(C(=O)NCC(c2ccc(N(C)C)cc2)N2CCCC2)c(OC)c1 (stereo unspecified)	inactive: -8.62%
Cc1cccc(-c2nc(CSc3nncn4c3cc3oc(C)cc34)c(C)o2)c1	inactive: -16.2%
Cc1ccc2nc(-c3ccc(Cl)cc3)cc(C(=O)OCC(=O)c3ccccc3)c2c1	inactive: -0.765%
CCSc1ncc(Cl)c(C(=O)Nc2c(C(=O)Nc3cccc(C)c3)oc3ccccc23)n1	inactive: -7.39%
CCC(C(=O)NC1CCCCC1)n1c(SCc2ccc(F)cc2)nc2ccncc21 (stereo unspecified)	inactive: -11.8%
CCc1ccc(C2Sc3ccccc3NC3=C2C(=O)c2ccccc23)cc1 (stereo unspecified)	inactive: -58.5%

Compound	activation
CC1CCC(NC(=O)C2(C)Cc3ccccc3C(=O)N2Cc2ccc(F)cc2)CC1 (stereo unspecified)	inactive: -18.4%
COc1ccc(C(=O)NCCc2sc(-c3ccc(F)cc3)nc2C)cc1OC	inactive: 4.51%
COc1ccc(NC(=O)c2sc3nc4c(cc3c2N)CN(Cc2ccccc2)CC4)cc1	inactive: 10.3%
CCC(Cn1nnc2ccccc2c1=O)NC(=O)Nc1ccc(C)cc1C (stereo unspecified)	inactive: -25%
COc1ccc2c(c1)cc1c(=O)n(CC(=O)NCc3ccco3)nc(C)n12	inactive: -11.3%
COc1ccccc1N(CC(=O)NCCSCc1ccccc1)S(C)(=O)=O	inactive: -6.29%
CCCCc1nn2c(=O)cc(COC(=O)c3cccc(OC)c3)nc2s1	inactive: -3.74%
CCc1nnc2c(Nc3cccc(C(C)=O)c3)nc3ccccc3n12	inactive: -7.66%
COc1ccc(-c2cc(C(F)(F)F)nc(SCC(=O)NCc3ccc(OC)c(OC)c3)n2)cc1	inactive: -6.81%
COc1ccc(-c2onc(C)c2C)cc1S(=O)(=O)NCc1ccco1	inactive: -12.4%
CCc1ccc(CNC(=O)c2ccc3c(c2)nc2n3CCC(C)C2)cc1 (stereo unspecified)	inactive: -19.2%
COc1cccc(C(=O)Nc2cccc(OCc3cc(=O)n4cc(C)ccc4n3)c2)c1	inactive: -5.78%
CCOc1ccc(C(=O)NCc2ccc3c(c2)CCN3C(=O)c2ccccc2)cc1	inactive: -35.2%
COc1ccc(NC(=O)CN2C(=O)COc3ccc(S(=O)(=O)Nc4ccccc4)cc32)cc1	inactive: -17.4%
CCOC(=O)CN1C(=O)c2ccccc2Sc2ncccc21	inactive: -6.67%
CCCCc1nn2c(=O)cc(COC(=O)COc3ccc(C)cc3)nc2s1	inactive: 2.24%
COc1ccc(C)cc1NC(=O)CN(c1ccccc1)S(=O)(=O)N(C)C	inactive: -11.7%
COc1ccc(/C=C\c2onc(C)c2S(=O)(=O)N2CCC(C(=O)Nc3ccc(C)cc3C)CC2)cc1	inactive: -17.4%
CCc1ccc(NC(=O)CSC2=Nc3ccccc3C3=NC(CCC(=O)NCCc4ccccc4)C(=O)N23)cc1 (stereo unspecified)	inactive: -17.1%
CC1=C(C(=O)Nc2ccc(C)cc2C)C(c2ccc(O)cc2)n2nnnc2N1 (stereo unspecified)	inactive: -1.97%
CCC12CN3CC(C)(CN(C1)C3c1c[nH]c3ccccc13)C2=O (stereo unspecified)	inactive: -5.45%
CCC(=O)N1CCc2cc(S(=O)(=O)NC(CC(C)C)C(=O)Nc3cc(C)ccc3OC)ccc21 (stereo unspecified)	inactive: -1.73%

Compound	activation
O=C(Nc1ccc(F)cc1Cl)n1ncc2cc(Cl)ccc21	inactive: 8.34%
CCCOc1ccc(C(=O)Nc2cccc(NC(=O)c3cccc(Cl)c3)c2)cc1	inactive: 40%
CCS(=O)(=O)c1ncc(N(Cc2ccco2)Cc2sccc2C)c(C(=O)Nc2ccc(C)cc2C)n1	inactive: -20.4%
Cc1ccc2c(c1)c(=O)c(C(=O)c1ccncc1)cn2CC(=O)Nc1c(C)cccc1C	inactive: -5.06%
Cn1cc(S(=O)(=O)N2CCCCC2)cc1C(=O)N1CCN(c2ccc(F)cc2)CC1	inactive: 4.06%
Cc1cc(=O)n(CC(=O)NCCC(C)C)c2c1c(C)nn2C	inactive: 29%
CC(NC(=O)CN(C)S(=O)(=O)c1ccc2c(c1)c(=O)n(C)c(=O)n2C)c1ccccc1 (stereo unspecified)	inactive: -18.7%
Cc1oc(-c2ccc(C(=O)NCc3ccc(N(C)C)cc3)cc2)nc1COc1ccccc1	inactive: -3.3%
Cc1cc2c(=O)c(C(=O)c3ccncc3)cn(CC(=O)Nc3cccc(C)c3C)c2cc1C	inactive: -6.41%
Cc1ccc(C)c(S(=O)(=O)c2cnc(SCC(=O)Nc3ccc(F)cc3F)[nH]c2=O)c1	inactive: 2.74%
CCc1ccc(NC(=O)CSc2nccn2C2CCCC2)cc1	inactive: 2.73%
COc1ccc(CCNC(=O)Cn2ncc3c(C)n(Cc4ccccc4F)c(C)c3c2=O)cc1OC	inactive: -7.06%
COc1ccc(CCNC(=O)Cn2nc(C)n3c(cc4occc43)c2=O)cc1OC	inactive: -21.9%
CCOC(=O)c1c(S(=O)(=O)N2CCCC(C(=O)N3CCN(c4ccc(F)cc4)CC3)C2)c(C)n(C)c1C (stereo unspecified)	inactive: -0.173%
Cc1ccc(C)c(-c2csc(-c3c(N)c(C(=O)c4ccc5c(c4)OCO5)n4ccccc34)n2)c1	inactive: -13.8%
CCN(CC)CCNC(=O)C1CCCN(c2ncnc3onc(C)c23)C1 (stereo unspecified)	inactive: 4.27%
Cc1c(C(N)=O)nnn1-c1ccc(Br)cc1	inactive: 20.2%
COc1ccc(NC(c2ccc(F)cc2)c2nnc(-c3ccccc3Cl)o2)cc1Cl (stereo unspecified)	inactive: -17.2%
Cc1ccc2nc(N(Cc3cccnc3)C(=O)C3CCCCC3)sc2c1	inactive: -0.293%
COc1ccc(Br)cc1C1CC(=O)Nc2c1c(C)nn2-c1nc(C)cc(C)n1 (stereo unspecified)	inactive: -4.52%
CCn1cc(C(=O)OCC(=O)Nc2cc(Cl)ccc2OC)c(=O)c2ccc(C)nc21	inactive: 14.4%
Cc1cccc(NC(=O)Cn2c(=O)oc3cc(S(=O)(=O)NCc4ccccc4)ccc32)c1	active: 65.1%

Compound	activation
CCc1ccc2nc(N3CCC(C(=O)O)CC3)sc2c1	inactive: 37.4%
COc1cc(CNCc2c(C(=O)O)c(C)n(Cc3cccc(Cl)c3)c2C)cc(OC)c1OC	inactive: -15.9%
CCc1cccc(NC(=O)CN2C(=O)CCc3cc(S(=O)(=O)N4CCOCC4)ccc32)c1	inactive: -11.2%
COc1ccc(Br)cc1CNC(=O)C(C)n1nc(C)n2c(cc3occc32)c1=O (stereo unspecified)	inactive: -9.96%
CCC(C(=O)N1CCN(c2cc(Cl)ccc2C)CC1)n1nc(C)n2c(cc3occc32)c1=O (stereo unspecified)	inactive: -9.46%
CCSc1nc2n(n1)C(c1ccc(CC)cc1)C(C(=O)Nc1ccccc1OC)=C(C)N2 (stereo unspecified)	inactive: 15.1%
Cc1c(Cl)cccc1-n1c(CCC(=O)O)ccc1-c1cccs1	inactive: -13%
CCN(CC)c1cc(C)nc2nc(-c3ccc(C)cc3)nn12	inactive: 2.24%
CN1CCCN=C1/C=C/c1cccs1	inactive: -2.2%
Cc1ccc2oc(C(=O)Nc3nnc(CC(C)C)s3)cc(=O)c2c1	inactive: 20.9%
COc1ccc(N2CCN(C(=O)c3cc4c(=O)n(Cc5ccccc5)ccc4nc3C)CC2)cc1	inactive: -0.997%
Cc1ccc(CN2CCSc3ccc(C(=O)Nc4ccc(F)cc4F)cc32)cc1	inactive: -31%
CCOc1ccccc1C(=O)NCc1ccc2c(c1)CCN2C(C)=O	inactive: -19.8%
Cc1ccc(C2c3[nH]c4ccccc4c3CCN2C(=O)Nc2ccc(C)c(C)c2)cc1 (stereo unspecified)	inactive: -30.2%
CCOC(=O)C(C)Sc1nnc2ccc3ccccc3n12 (stereo unspecified)	inactive: -7.42%
Cc1ccc(NC(=O)C(=O)NCc2ccc(Cl)cc2)cc1	inactive: -7.31%
O=C(NCCc1ccc(Cl)cc1)c1ccc(CSCc2ccccc2Cl)o1	inactive: -20.4%
Cc1cccc(NC(=O)C2CCCN(S(=O)(=O)c3cccc4nonc34)C2)c1 (stereo unspecified)	inactive: -13.9%
CC(=O)c1cccc(NC(=O)c2nc(-c3ccc(C)cc3)n3c2CCCCC3)c1	inactive: 9.41%
Cc1ccc(S(=O)(=O)Nc2cccc(-c3ccc(N4CCCCC4)nn3)c2)s1	inactive: 0.171%
